# Test results from US10968462B2, “Plants having increased tolerance to herbicides” (BASF AGRO B.V., priority 2013, dated 2021).
# Several values for one entry are separate records, joined by “and”; a condition that tells them apart may be missing. Identical values can stand only once. The source gives many values for each of these; only a part stands here.
# Test system: transgenic soybean cv Jake
# Experiment: Soybean greenhouse spray test, clones from T0 individuals, injury 0-9 point scale 1 week after treatment (Table 7A)
# Type: in vivo, Glycine max
# Experimental: Soybean cv Jake was transformed as previously described by Siminszky et al., Phytochem Rev. 5:445-458 (2006). After regeneration, transformants were transplanted to soil in small pots, placed in growth chambers (16 hr day/8 hr night; 25° C. day/23° C. night; 65% relative humidity; 130-150 microE m-2 s-1) and subsequently tested for the presence of the T-DNA via Taqman analysis. After a few weeks, healthy, transgenic positive, single copy events were transplanted to larger pots and allowed to grow in the growth chamber. An optimal shoot for cutting was about 3-4 inches tall, with at least two nodes present. Each cutting was taken from the original transformant (mother plant) and dipped into rooting hormone powder (indole-3-butyric acid, IBA). The cutting was then placed in oasis wedges inside a bio-dome. The mother plant was taken to maturity in the greenhouse and harvested for seed. Wild type cuttings were also taken simultaneously to serve as negative controls. The cuttings were kept in the bio-dome for 5-7 days and then transplanted to 3 inch pots and then acclimated in the growth chamber for two more days. […] Other herbicides, such as AHAS (ALS—Acetolactate Synthase) inhibiting herbicides were also tested in a similar fashion for confirming cross resistance to other modes of action: Tritosulfuron, Florasulam, Metsulfuron, Rimsulfuron. Herbicide injury evaluations were taken at 2, 7, 14 and 21 days after treatment.
# • 0 No Injury • 1 Minimal injury, only a few patches of leaf injury or chlorosis. • 2 Minimal injury with slightly stronger chlorosis. Overall growth points remain undamaged. • 3 Slightly stronger injury on secondary leaf tissue, but primary leaf and growth points are still undamaged. • 4 Overall plant morphology is slightly different, some chlorosis and necrosis in secondary growth points and leaf tissue. Stems are intact. Regrowth is highly probable within 1 week. • 5 Overall plant morphology is clearly different, some chlorosis and necrosis on a few leaves and growth points, but primary growth point is intact. Stem tissue is still green. Regrowth is highly probably within 1 week. • 6 Strong injury can be seen on the new leaflet growth. Plant has a high probability to survive only through regrowth at different growth points. Most of the leaves are chlorotic/necrotic but stem tissue is still green. May have regrowth but with noticeable injured appearance. • 7 Most of the active growth points are necrotic. There may be a single growth point that could survive and may be partially chlorotic or green and partially necrotic. Two leaves may still be chlorotic with some green; the rest of the plant including stem is necrotic. • 8 Plant will likely die, and all growth points are necrotic. One leaf may still be chlorotic with some green. The remainder of the plant is necrotic. • 9 Plant is dead. • * Not tested
smiles,measurement,setting,value
"CC(C)N(C)S(=O)(=O)NC(=O)c1cc(-n2c(=O)cc(C(F)(F)F)n(C)c2=O)c(F)cc1Cl [Saflufenacil, saflufenacil]",injury (0-9 point scale) 1 week after treatment,"Saflufenacil 12.5 g ai/ha, GOI AmtuPPX2L_F420L",1 and 0 and 3
same,injury (0-9 point scale) 1 week after treatment,"Saflufenacil 12.5 g ai/ha, GOI AmtuPPX2L_F420L stacked with Bradi_1g07930.1_Zm",4
same,injury (0-9 point scale) 1 week after treatment,"Saflufenacil 12.5 g ai/ha, GOI AmtuPPX2L_F420V stacked with Bradi_1g07930.1_Zm",0 (2×) and 2
same,injury (0-9 point scale) 1 week after treatment,"Saflufenacil 12.5 g ai/ha, GOI AmtuPPX2L_L397D_F420V",1 and 0
same,injury (0-9 point scale) 1 week after treatment,"Saflufenacil 12.5 g ai/ha, GOI AmtuPPX2L_L397D_F420V stacked with Bradi_1g07930.1_Zm",1
same,injury (0-9 point scale) 1 week after treatment,"Saflufenacil 12.5 g ai/ha, GOI Bradi_1g07930.1_Zm",5
same,injury (0-9 point scale) 1 week after treatment,"Saflufenacil 12.5 g ai/ha, GOI wild type",9
same,injury (0-9 point scale) 1 week after treatment,"Saflufenacil 25 g ai/ha, GOI AmtuPPX2L L397D stacked with Bradi_1g07930.1_Zm",1 (4×) and 6 and 5 and 2 and 0 (2×) and 4
same,injury (0-9 point scale) 1 week after treatment,"Saflufenacil 25 g ai/ha, GOI AmtuPPX2L_F420L",9 and 0 and 2 (4×) and 1
same,injury (0-9 point scale) 1 week after treatment,"Saflufenacil 25 g ai/ha, GOI AmtuPPX2L_F420L stacked with Bradi_1g07930.1_Zm",4 and 1
same,injury (0-9 point scale) 1 week after treatment,"Saflufenacil 25 g ai/ha, GOI AmtuPPX2L_F420V stacked with Bradi_1g07930.1_Zm",1 (2×) and 0 (7×) and 9
same,injury (0-9 point scale) 1 week after treatment,"Saflufenacil 25 g ai/ha, GOI AmtuPPX2L_L397D",7 and 2 (3×) and 9 and 5 and 3
same,injury (0-9 point scale) 1 week after treatment,"Saflufenacil 25 g ai/ha, GOI AmtuPPX2L_L397D_F420V",3 and 1 and 0 and 4 and 6 and 5 (3×) and 8
same,injury (0-9 point scale) 1 week after treatment,"Saflufenacil 25 g ai/ha, GOI AmtuPPX2L_L397D_F420V stacked with Bradi_1g07930.1_Zm",2 (2×) and 3 and 0 (2×) and 4 (2×) and 5 and 6 and 8
same,injury (0-9 point scale) 1 week after treatment,"Saflufenacil 25 g ai/ha, GOI AmtuPPX2L_R128A_F420L",4 and 0
same,injury (0-9 point scale) 1 week after treatment,"Saflufenacil 25 g ai/ha, GOI Bradi_1g07930.1_Zm",9 and 4
same,injury (0-9 point scale) 1 week after treatment,"Saflufenacil 25 g ai/ha, GOI wild type",9
same,injury (0-9 point scale) 1 week after treatment,"Saflufenacil 50 g ai/ha, GOI AmtuPPX2L L397D stacked with Bradi_1g07930.1_Zm",2 (4×) and 9 and 6 and 1 (3×) and 7
same,injury (0-9 point scale) 1 week after treatment,"Saflufenacil 50 g ai/ha, GOI AmtuPPX2L_F420L",9 and 0 and 2 and 1 and 3 (2×) and 5
same,injury (0-9 point scale) 1 week after treatment,"Saflufenacil 50 g ai/ha, GOI AmtuPPX2L_F420L stacked with Bradi_1g07930.1_Zm",3
same,injury (0-9 point scale) 1 week after treatment,"Saflufenacil 50 g ai/ha, GOI AmtuPPX2L_F420V",6
same,injury (0-9 point scale) 1 week after treatment,"Saflufenacil 50 g ai/ha, GOI AmtuPPX2L_F420V stacked with Bradi_1g07930.1_Zm",0 (4×) and 1 (4×) and 9 and 2
same,injury (0-9 point scale) 1 week after treatment,"Saflufenacil 50 g ai/ha, GOI AmtuPPX2L_L397D",9 (2×) and 4 (2×) and 3 and 6 and 5
same,injury (0-9 point scale) 1 week after treatment,"Saflufenacil 50 g ai/ha, GOI AmtuPPX2L_L397D_F420V",6 (2×) and 2 and 1 and 7 and 4 (2×) and 5 and 9
same,injury (0-9 point scale) 1 week after treatment,"Saflufenacil 50 g ai/ha, GOI AmtuPPX2L_L397D_F420V stacked with Bradi_1g07930.1_Zm",1 (2×) and 3 (4×) and 0 and 5 (2×) and 4 and 9
same,injury (0-9 point scale) 1 week after treatment,"Saflufenacil 50 g ai/ha, GOI AmtuPPX2L_R128A_F420L",6 (2×) and 1 and 3
same,injury (0-9 point scale) 1 week after treatment,"Saflufenacil 50 g ai/ha, GOI Bradi_1g07930.1_Zm",8 and 9
same,injury (0-9 point scale) 1 week after treatment,"Saflufenacil 50 g ai/ha, GOI wild type",9 (2×) and 8
same,injury (0-9 point scale) 1 week after treatment,"Saflufenacil 100 g ai/ha, GOI AmtuPPX2L L397D stacked with Bradi_1g07930.1_Zm",2 (2×) and 9 (2×) and 7 and 5 and 3 (2×) and 1 (2×)
same,injury (0-9 point scale) 1 week after treatment,"Saflufenacil 100 g ai/ha, GOI AmtuPPX2L_F420L",9 and 4 and 6 and 5
same,injury (0-9 point scale) 1 week after treatment,"Saflufenacil 100 g ai/ha, GOI AmtuPPX2L_F420V",6
same,injury (0-9 point scale) 1 week after treatment,"Saflufenacil 100 g ai/ha, GOI AmtuPPX2L_F420V stacked with Bradi_1g07930.1_Zm",0 and 1 (2×) and 9 and 2 (3×)
same,injury (0-9 point scale) 1 week after treatment,"Saflufenacil 100 g ai/ha, GOI AmtuPPX2L_L397D",9 (2×) and 4 (2×) and 6 (2×) and 5
same,injury (0-9 point scale) 1 week after treatment,"Saflufenacil 100 g ai/ha, GOI AmtuPPX2L_L397D_F420V",6 (2×) and 7 and 5 (2×) and 4 and 9
same,injury (0-9 point scale) 1 week after treatment,"Saflufenacil 100 g ai/ha, GOI AmtuPPX2L_L397D_F420V stacked with Bradi_1g07930.1_Zm",4 (3×) and 3 and 2 (3×) and 5 (3×) and 9
same,injury (0-9 point scale) 1 week after treatment,"Saflufenacil 100 g ai/ha, GOI AmtuPPX2L_R128A_F420L",6 (2×) and 1 and 9 and 4 and 5
same,injury (0-9 point scale) 1 week after treatment,"Saflufenacil 100 g ai/ha, GOI AmtuPPX2L_R128A_F420V",6 (3×) and 2 (2×) and 1 and 9 (2×) and 4 (3×) and 3 (2×)
same,injury (0-9 point scale) 1 week after treatment,"Saflufenacil 100 g ai/ha, GOI Bradi_1g07930.1_Zm",7 and 9 and 5
same,injury (0-9 point scale) 1 week after treatment,"Saflufenacil 100 g ai/ha, GOI wild type",9 and 8
same,injury (0-9 point scale) 1 week after treatment,"Saflufenacil 200 g ai/ha, GOI AmtuPPX2L_R128A_F420L",8 and 6 and 4 and 7
same,injury (0-9 point scale) 1 week after treatment,"Saflufenacil 200 g ai/ha, GOI AmtuPPX2L_R128A_F420V",6 (5×) and 2 (4×) and 3 and 9 (2×) and 4 (2×)
same,injury (0-9 point scale) 1 week after treatment,"Saflufenacil 200 g ai/ha, GOI wild type",9
